# Source: the BET-seq Pho4 binding data (Le et al. 2018)
# This is one part of the list. These are noisy estimates, calculated here from bound and input reads.
# Target: T1, Pho4 (S. cerevisiae) (UniProt P07270)
# T1 sequence: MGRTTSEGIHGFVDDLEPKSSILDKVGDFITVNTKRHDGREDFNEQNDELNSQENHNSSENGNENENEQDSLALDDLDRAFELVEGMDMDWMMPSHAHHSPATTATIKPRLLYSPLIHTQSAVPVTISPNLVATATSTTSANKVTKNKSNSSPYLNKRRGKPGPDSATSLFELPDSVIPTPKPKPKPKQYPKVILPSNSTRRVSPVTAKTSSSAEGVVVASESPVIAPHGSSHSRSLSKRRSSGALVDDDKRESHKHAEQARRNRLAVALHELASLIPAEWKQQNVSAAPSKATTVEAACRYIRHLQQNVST
# Experiment: relative binding free energy (BET-seq); higher = weaker binding
# Conditions: reference: library average
row,Sequence,relative binding free energy [kcal/mol]
1,ATATGCACGTGTATTA,-0.02
2,TGTGTCACGTGTATGA,0.1
3,TGCTTCACGTGGGGTG,0.07
4,CGTAACACGTGGGGTC,-0.17
5,CATAGCACGTGGGATT,-0.09
6,GCTGTCACGTGTGATG,0.14
7,CAAGACACGTGTGTGT,0.04
8,AGTTACACGTGCGGGA,0.07
9,CGGTTCACGTGATTTG,0.35
10,TGTTACACGTGGAAGA,0.23
11,AAGTCCACGTGTTTGT,-0.03
12,TGGCGCACGTGCGGAT,-0.04
13,TGTATCACGTGTATAG,0.11
14,TTAGCCACGTGATCGG,0.1
15,CTGGGCACGTGCGGTC,-0.18
16,TCGTTCACGTGAGATA,0.56
17,TCAGGCACGTGTAGGG,-0.05
18,TCTAGCACGTGTTGAT,0
19,GTTCACACGTGGGGGA,0.09
20,TGAGGCACGTGGGCAG,-0.26
21,CCGGTCACGTGGCGGG,0.09
22,CGTTGCACGTGTTGTT,-0.07
23,TCTGTCACGTGGGGCA,-0.06

row,Sequence,relative binding free energy [kcal/mol]
1,TTATGCACGTGTGTAG,0.06
2,CTCTACACGTGGTTGG,0.03
3,TAGGGCACGTGGTCCT,-0.21
4,TTGAGCACGTGCATTT,0
5,TGACGCACGTGTGAGG,0.01
6,AAGGGCACGTGAGGCT,-0.08
7,ATGGCCACGTGCAGGG,-0.12
8,AAGGGCACGTGTGGGG,-0.03
9,GAGGTCACGTGGGCCG,-0.05
10,TTCTGCACGTGTGGAT,-0.06
11,TATTGCACGTGATGTC,0.18
12,CCTTTCACGTGGTGGT,0.14
13,TATGGCACGTGTTGGA,-0.05
14,CAAGTCACGTGGGATG,0.08
15,CTGGACACGTGTTCGG,0.02
16,GATGACACGTGTGTGT,0.05
17,CCAGTCACGTGGGGAG,0.01
18,TTAATCACGTGTAATA,0.17
19,GTGAGCACGTGGGTAT,-0.15
20,AGGGGCACGTGCGAGC,-0.23
21,TTAGTCACGTGAGTCA,0.29
22,GTTAACACGTGTTCTG,0.13
23,GGTGGCACGTGATAGG,0.05

row,Sequence,relative binding free energy [kcal/mol]
1,CAGTACACGTGTTGTG,0.04
2,CTAGTCACGTGGTTGT,0.01
3,TGTATCACGTGACGGG,0.33
4,TGTCTCACGTGCTGTT,0.16
5,GCGAGCACGTGGAGGT,-0.12
6,TGGCACACGTGTAGGA,0.03
7,ATTTACACGTGAGTGG,0.34
8,ACATTCACGTGGGTGG,0.09
9,TGGCACACGTGGGGGC,0.05
10,GGGGCCACGTGTGGTC,-0.04
11,TCATTCACGTGTGATG,0.19
12,GTGTTCACGTGTGGAG,0.36
13,CTAGGCACGTGGTTCG,-0.24
14,GTTGGCACGTGGAGCC,-0.06
15,AGTTACACGTGTTTGC,0.08
16,TCAATCACGTGGGTGA,0.19
17,GTCTGCACGTGCGAGG,0.01
18,GACTTCACGTGTAGGG,0.22
19,TTAATCACGTGGGCGT,0.05
20,GCAGGCACGTGGGGTA,-0.29
21,TCGGCCACGTGTGGGT,-0.02
22,TTTTTCACGTGGCACA,0.18
23,ATTGGCACGTGGCGGA,-0.12

row,Sequence,relative binding free energy [kcal/mol]
1,GATGACACGTGAGCGT,0.18
2,GCAGTCACGTGTCGGG,0.15
3,TTTTTCACGTGCGTTG,0.27
4,GAGGTCACGTGTGGAT,0.24
5,AGCAGCACGTGTTTGT,-0.14
6,GGTGACACGTGCAGGT,0.02
7,GGATCCACGTGTTTTG,0.1
8,GGTTACACGTGGGCTT,0.05
9,TTGTTCACGTGCTGGA,0.29
10,GGAGGCACGTGGTCTT,-0.24
11,TCTATCACGTGCGTGT,0.08
12,TTGGTCACGTGGCGTA,-0.07
13,AATGTCACGTGATCTG,0.19
14,ATGAGCACGTGCGGTG,-0.2
15,CGAGACACGTGTTGTG,-0.13
16,TTGTACACGTGCGGCG,0.04
17,TTAGCCACGTGTGGGC,0.07
18,AAGTTCACGTGAGTAA,0.36
19,AGAGCCACGTGGTTAG,0.04
20,GTTTTCACGTGGTCGG,0.24
21,GTGTACACGTGTGATG,0.21
22,GTGCGCACGTGGGTCG,-0.15
23,CGGGGCACGTGTGATT,0.05

row,Sequence,relative binding free energy [kcal/mol]
1,GAGAGCACGTGGGTAG,-0.06
2,CGATGCACGTGGCGGT,-0.15
3,TTGTGCACGTGAGTGC,0.27
4,GATGTCACGTGTGGGA,0.25
5,TGGATCACGTGCTGGT,0.14
6,AGAGTCACGTGAGCGG,0.35
7,AAAGGCACGTGGGTGC,-0.33
8,CGTTGCACGTGTATGA,0.06
9,TTATGCACGTGAGAAT,0.25
10,GTGAGCACGTGAGCGT,-0.07
11,ATTGGCACGTGTAGCA,-0.06
12,TGAGACACGTGACTGG,0.26
13,CGGGTCACGTGGTCAT,0.08
14,GGTAGCACGTGGACAT,0.02
15,TGGCGCACGTGTTGTT,-0.04
16,TTAGACACGTGGAGTG,-0.02
17,GGTATCACGTGGTTCA,0.14
18,GTGATCACGTGAGTGG,0.23
19,GGTTGCACGTGCGAGA,0.08
20,GGTGGCACGTGCGATG,0
21,AATCGCACGTGGTGTT,-0.07
22,GGTGGCACGTGAAAGC,0.22
23,AAATTCACGTGTTGGA,0.17
